Experimental findings from PubChem BioAssay AID1620 (Sanford-Burnham Center for Chemical Genomics, 2009) are described below.

For the data set, the system named is HeLa, 35S-Met/Cys protein incorporation toxicity, 3 h. Nature of the data set: HeLa cytotoxicity by protein synthesis, late-stage follow-up, cytotoxicity control for PMI inhibitor project, HeLa cells (AID 1620).

A number of entries come with more than one value. This is not the full list of results. There may be further records.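 Rule for the calls: active = toxicity graded low, moderate or high, meaning less radioactive sulfur built into protein than in solvent-only controls; inactive = the rest.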 Values that stand side by side are repeats across runs, samples, wells, individuals or studies. Records carry a tag for their origin. Letters count within one entry.

Turning to `Cc1ccc(-n2sc3ccccc3c2=O)cc1`, the outcome is “inactive; no toxicity [sample A] and active; low toxicity [sample B]”.
